The values below come from PMC9648990 (Biochemistry, 2022).

Data set [1] concerns the molecule itself. Put plainly: SEC-SAXS.
Data set [2] concerns the molecule itself. Put plainly: AUC.

B1: Fusicoccadiene synthase from Phomopsis amygdali (PaFS), full-length (enzyme)
chain: MEFKYSEVVEPSTYYTEGLCEGIDVRKSKFTTLEDRGAIRAHEDWNKHIGPCGEYRGTLGPRFSFISVAVPECIPERLEVISYANEFAFLHDDVTDHVGHDTGEVENDEMMTVFLEAAHTGAIDTSNKVDIRRAGKKRIQSQLFLEMLAIDPECAKTTMKSWARFVEVGSSRQHETRFVELAKYIPYRIMDVGEMFWFGLVTFGLGLHIPDHELELCRELMANAWIAVGLQNDIWSWPKERDAATLHGKDHVVNAIWVLMQEHQTDVDGAMQICRKLIVEYVAKYLEVIEATKNDESISLDLRKYLDAMLYSISGNVVWSLECPRYNPDVSFNKTQLEWMRQGLPSLESCPVLARSPEIDSDESAVSPTADESDSTEDSLGSGSRQDSSLSTGLSLSPVHSNEGKDLQRVDTDHIFFEKAVLEAPYDYIASMPSKGVRDQFIDALNDWLRVPDVKVGKIKDAVRVLHNSSLLLDDFQDNSPLRRGKPSTHNIFGSAQTVNTATYSIIKAIGQIMEFSAGESVQEVMNSIMILFQGQAMDLFWTYNGHVPSEEEYYRMIDQKTGQLFSIATSLLLNAADNEIPRTKIQSCLHRLTRLLGRCFQIRDDYQNLVSADYTKQKGFCEDLDEGKWSLALIHMIHKQRSHMALLNVLSTGRKHGGMTLEQKQFVLDIIEEEKSLDYTRSVMMDLHVQLRAEIGRIEILLDSPNPAMRLLLELLRV
Broadly, the stoichiometry N is the number of molecules, sites or subunits per partner or assembly. By Kd is commonly meant the equilibrium constant for the complex coming apart. Low readings indicate a tighter complex, high ones a looser complex. Turning to B1, the “stoichiometry N” value in data set [1] is 8. The protein also registered a Kd in data set [2] of 330 nM.
